# The whole screen tested about 310,000 compounds, of which about 18,000 (5.8%) were called active. The shares of active, inactive and inconclusive entries below differ from those in the screen. Calls come from the whole dose curve; as a rule, active = well fitted inhibition curve with a large enough effect; inconclusive = small, poorly fitted or top-dose-only effect, or another doubt; inactive = no such curve, though single readings can be large or run the other way. Potencies of inconclusive entries are left out as doubtful fits.
# Assay: Primary qHTS for delayed death inhibitors of the malarial parasite plastid, 48 hour incubation
# Conditions: P. falciparum luciferase growth in erythrocytes; series mostly up to 28.7 µM; activity change, negative = inhibition: at the top concentration
# How it was run: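 A one-generation exposure of luciferase-tagged malaria parasites in RPMI 1640/Albumax erythrocyte culture, 37 C and 5% CO2. Inhibition is inferred from decreased luminescence after adding detection reagent.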
# % is set by controls: 0 for no effect and ±100 for the full control effect; potency is the fitted concentration of half-maximal effect; tags give direction and shape of the fitted curve.
Structure (SMILES),Potency,"activity change, negative = inhibition"
CCc1ccc(C2c3[nH]c4ccccc4c3CCN2C(=O)c2cc[n+]([O-])cc2)cc1 (stereo not drawn),"inconclusive [inhibitor, single point]",–
Cc1[nH]c2ccccc2c1C(=O)C(C)OC(=O)c1ccc(Cl)nc1 (stereo not drawn),"inconclusive [inhibitor, single point]",–
Cc1ccc(S(=O)(=O)Nc2ccc(C(OC(=O)c3ccccc3[N+](=O)[O-])(C(F)(F)F)C(F)(F)F)cc2)cc1,"inconclusive [inhibitor, single point]",–
C=CCc1ccc(OCc2ccc(C(=O)O)o2)c(OC)c1,–,inactive: 226%
CCc1sc(C(=O)NC2CCN(C)CC2)cc1Br,"inconclusive [inhibitor, partial curve]",–
CCOc1ccc(C(C)=O)cc1CN1C(=O)NC(C)(C2CC2)C1=O (stereo not drawn),"inconclusive [inhibitor, single point]",–
Cc1ccc(OCc2cc(C(=O)N3CCN(C)C[C@@H]3c3ccccc3)no2)cc1C,"inconclusive [inhibitor, partial curve]",–
CN(CC(=O)Nc1cccc(F)c1)CC(=O)Nc1ccccc1Oc1ccccc1,"inconclusive [inhibitor, single point]",–
CCC1(c2ccccc2)NC(=O)N(CC(=O)N2CC(=O)Nc3ccccc32)C1=O (stereo not drawn),"inconclusive [inhibitor, partial curve]",–
COCCCC1CCN(C(=O)C2CCC(=O)N(Cc3cccc(F)c3)C2)CC1 (stereo not drawn),"inconclusive [inhibitor, single point]",–
Cn1c(-c2ccc3c(c2)OCO3)cc(=O)c2ccccc21,"inconclusive [inhibitor, partial curve, poor fit]",–
NS(=O)(=O)c1ccc(NC(=O)N2c3ccccc3Sc3ccccc32)cc1,"inconclusive [inhibitor, single point]",–
CCc1nnc(NS(=O)(=O)c2ccc(NC(=S)NC(=O)c3ccccc3)cc2)s1,–,inactive: 0%
COc1ccc(/C=C/c2nc(S(=O)(=O)c3ccccc3)c(N(C)C)o2)cc1,"inconclusive [inhibitor, single point]",–
O=C(CN1CCN(Cc2ccc3c(c2)OCO3)CC1)Nc1ccc2c(c1)OCO2,–,inactive: 3.94%
Cc1ccc(NC(=O)CSc2ccc(Br)cc2)cc1S(=O)(=O)N1CCOCC1,"inconclusive [inhibitor, partial curve, poor fit]",–
O=C(COc1nsnc1N1CCOCC1)N1CCOCC1,"inconclusive [inhibitor, single point]",–
Cc1csc(OCc2ccc(C#N)cc2)n1,–,inactive: 8.94%
COc1cc(C(C)=O)ccc1OCc1nnc(-c2ccccc2Br)o1,"inconclusive [inhibitor, single point]",–
Cn1cc(/C=C2\SC(=O)NC2=S)c2ccccc21,"inconclusive [inhibitor, single point]",–
O=C(CCCCCN1C(=O)[C@@H]2Cc3ccccc3CN2C1=O)N[C@@H](Cc1ccc(O)cc1)C(=O)O,–,inactive: -5.06%
CCSc1ncc(/C=N/Nc2ccc(F)cc2)n1C,"inconclusive [inhibitor, single point]",–
COc1ccc(/C(C)=N\Nc2nc(-c3ccccc3)cc(=O)[nH]2)cc1,active: 0.928 µM,–

Structure (SMILES),Potency,"activity change, negative = inhibition"
COc1ccc(C)cc1NC(=O)c1ccc(NC(=O)CC2SC(N3CCCC3)=NC2=O)cc1 (stereo not drawn),"inconclusive [inhibitor, single point]",–
O=C(CSc1nnc2ccc(-c3ccncc3)nn12)Nc1ccc(F)cc1,active: 11.7 µM,–
COc1ccc(Br)cc1C(C[N+](=O)[O-])c1c(N)n(C)c(=O)n(C)c1=O (stereo not drawn),active: 3.7 µM,–
Cc1ccc(S(=O)(=O)N2CCN(C(=O)N3CCOCC3)CC2)c(C)c1,"inconclusive [inhibitor, partial curve, poor fit]",–
COc1ccc2c(-c3ccccc3)cc(=O)[nH]c2c1,"inconclusive [inhibitor, single point]",–
COc1cc(NC(=O)COC(=O)C=C(C)C)c(C)cc1[N+](=O)[O-],–,inactive: 10.3%
CCC(NC(=S)NC1CCCCC1)c1ccc(C)cc1 (stereo not drawn),"inconclusive [inhibitor, single point]",–
CCOC(=O)N1CCN(CC(O)COc2ccc(C)cc2C(C)(C)C)CC1 (stereo not drawn),"inconclusive [inhibitor, partial curve]",–
CCCn1c(C)cc(/C=C(\C#N)C(=O)OCC(=O)N(C)c2c(N)n(Cc3ccccc3)c(=O)[nH]c2=O)c1C,"inconclusive [inhibitor, partial curve, poor fit]",–
CCOC(=O)c1ccc(NC(=O)NCc2ccccn2)cc1,–,inactive: -10.8%
CCOC(=O)COc1ccc2c(=O)c(-c3ccccc3OC)coc2c1,"inconclusive [inhibitor, partial curve, poor fit]",–
CCOc1ccc2nc(Cl)c(CN(C(C)=O)C3CCCCC3)cc2c1,"inconclusive [inhibitor, single point]",–
Cc1sc2ncnc(SCC(=O)N(C(C)C)C(C)C)c2c1C,–,inactive: 12.7%
O=C(C1=C[C@@H](C2CCCCC2)C[C@@H](OCc2ccc(CO)cc2)O1)N1CCN(Cc2ccc3c(c2)OCO3)CC1,active: 4.65 µM,–
COc1ccc(S(=O)(=O)N(CCN2CCOCC2)Cc2cc(OC)ccc2OC)cc1,"inconclusive [inhibitor, partial curve, poor fit]",–
O=C(c1cc(COc2ccc(F)cc2Cl)on1)N1CCCC(c2ccccc2)C1 (stereo not drawn),"inconclusive [inhibitor, partial curve]",–
O=C1CCN(CCc2ccccc2)CCN1[C@H](CSc1ccc(Br)cc1)Cc1ccccc1,active: 13.1 µM,–
COc1ccc(CN2CCCC(C(=O)Nc3cccc(-n4cccn4)c3)C2)cc1 (stereo not drawn),"inconclusive [inhibitor, single point]",–
CCCCN(C)Cc1c(O)ccc2c(=O)c(-c3ccccc3OC)coc12,"inconclusive [inhibitor, partial curve, poor fit]",–
CCOc1ccc(N2C(=O)S/C(=C\c3ccc(O)c(OC)c3)C2=O)cc1,"inconclusive [inhibitor, partial curve, poor fit]",–
CCCN1C(=O)CC(c2ccco2)Sc2ccccc21 (stereo not drawn),"inconclusive [inhibitor, partial curve]",–
CCOC(=O)C1CCN(C(=O)c2ccc(NS(=O)(=O)c3ccc(F)cc3C)cc2)CC1,"inconclusive [inhibitor, single point]",–
COc1ccc(C(c2nnnn2Cc2ccc(F)cc2)N2CCN(c3ccccc3)CC2)cc1 (stereo not drawn),active: 11.7 µM,–

Structure (SMILES),Potency,"activity change, negative = inhibition"
Cc1cnc(C(=O)N2CCCC(N3CCN(c4cccc(C(F)(F)F)c4)CC3)C2)cn1 (stereo not drawn),"inconclusive [inhibitor, partial curve, poor fit]",–
CN(c1ccc(C(=O)NCCSC(C)(C)C)cc1)S(C)(=O)=O,–,inactive: 145%
COc1cccc(CN(C(=O)/C=C/c2ccc(Cl)cc2)C2CCS(=O)(=O)C2)c1 (stereo not drawn),"inconclusive [inhibitor, partial curve, poor fit]",–
CCOC(=O)N1CCC(Nc2c(NCCCN3CCN(CC)CC3)c(=O)c2=O)CC1,"inconclusive [inhibitor, partial curve, poor fit]",–
COc1cc(O)c(C(CCN2CCCCC2)c2ccc3c(c2)OCO3)c(OC)c1 (stereo not drawn),active: 0.928 µM,–
COc1cc(/C=N/Nc2nc(=O)[nH]nc2C)ccc1O,"inconclusive [inhibitor, full curve]",–
Cc1cc(C(=O)CSc2nnnn2C)c(C)n1CCc1ccc(F)cc1,–,inactive: 6.08%
OC1CCCN(c2c3c(nc4cc(-c5cccc(Cl)c5)nn24)CCC3)C1 (stereo not drawn),active: 4.65 µM,–
O=C(CNC(=O)c1cccs1)NCC(=O)OCC(=O)c1ccccc1,–,inactive: 0%
O=C(CCC(=O)c1ccc(F)cc1)Nc1cccc(S(=O)(=O)Nc2cccc(Cl)c2)c1,–,inactive: 11.2%
O=C(Nc1nnc(-c2ccco2)o1)c1cccc(Cl)c1,"inconclusive [inhibitor, single point]",–
Cc1ccccc1C(=O)NNC1CC(=O)N(c2ccc3c(c2)OCCO3)C1=O (stereo not drawn),–,inactive: -1.67%
COc1ccc(CCn2c(C)c(C(C)=O)c(C(C)=O)c2C)cc1OC,–,inactive: 9.39%
COc1ccccc1N(O)C1CC(=O)N(c2ccc(F)cc2)C1=O (stereo not drawn),–,inactive: 8.58%
COc1ccc(-c2sc3cc4c(cc3c2C#CC2(O)CCCCC2)OCO4)cc1,"inconclusive [inhibitor, single point]",–
Nc1c(C(=O)Nc2ccccc2)sc2nc3c(c(-c4ccco4)c12)CCCC3,"inconclusive [inhibitor, partial curve]",–
CC(=NCC1CCCO1)c1c(O)n(Cc2ccccc2)c(=O)[nH]c1=O (stereo not drawn),–,inactive: 0.326%
COc1ccc(NC(=O)C2CCCN(S(=O)(=O)c3cccc4cccnc34)C2)cc1OC (stereo not drawn),"inconclusive [inhibitor, partial curve]",–
Cc1ccc(Nc2nc(N)c3ccccc3n2)cc1Cl,"inconclusive [inhibitor, full curve, poor fit]",–
Oc1ccc2ccccc2c1C1Nc2cccc3cccc(c23)N1,"inconclusive [inhibitor, single point]",–
Cc1ccc(S(=O)(=O)NC(C)C(=O)Nc2ccc3c(c2)OCO3)cc1 (stereo not drawn),"inconclusive [inhibitor, single point]",–
CCN1CCN(C(=O)/C=C/c2ccc(OC)cc2)CC1,"inconclusive [inhibitor, full curve, poor fit]",–
